The supplement of paper PMC12217912
The list shows a part of the results. Sequences were assembled here from the parent chain. Inactive controls read about 0.05.

B1: TEV protease; numbered along this chain (parent)
chain: MGESLFKGPRDYNPISSSICHLTNESDGHTTSLYGIGFGPFIITNKHLFRRNNGTLVVQSLHGVFKVKDTTTLQQHLVDGRDMIIIRMPKDFPPFPQKLKFREPQREERICLVTTNFQTKSMSSMVSDTSCTFPSGDGIFWKHWIQTKDGQCGSPLVSTRDGFIVGIHSASNFTNTNNYFTSVPKNFMELLTNQEAQQWVSGWRLNADSVLWGGHKVFMVKPEEPFQPVKEATQL

Variants of: B1
Experiment: raw area under fraction-flipped curve 0-4 h after induction (AUC4h, not background-subtracted), DNA-recorder readout of cleavage of the substrate (dimensionless); higher = more cleavage of the substrate by the protease variant
Details: temperature: 34 °C; time window: 0-4 h after rhamnose induction
Description: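 In vivo DNA recorder in E. coli TOP10(DE3) ΔrhaA at 34 °C. Each TEVp single-site mutant (parent TEVp 0) is paired with a single-site variant of the 7-mer TEVs (canonical ENLYFQ|S). The substrate sits between flexible linkers in a Bxb1-sfGFP-TEVs-SsrA fusion, so cleavage stabilises Bxb1 and speeds flipping of a recombination array, read by NGS. The value is the raw area under the fraction-flipped curve over 0-4 h after rhamnose induction (AUC4h), with ≥20 reads per time point. It is not background-subtracted; inactive controls average about 0.047.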
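Further: Bxb1 expression induced with 0.2% (w/v) L-rhamnose at OD600 near 0.5, cultures sampled hourly, flipped fraction per protease–substrate barcode pair counted by paired-end Illumina sequencing.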

Row | Variant | area with substrate ENAYFQS | area with substrate ENCYFQS | area with substrate ENDYFQS | area with substrate ENEYFQS | area with substrate ENGYFQS | area with substrate ENIYFQS | area with substrate ENSYFQS | area with substrate ENTYFQS | area with substrate ENKYFQS | area with substrate ENMYFQS | area with substrate ENNYFQS | area with substrate ENQYFQS | area with substrate ENVYFQS | area with substrate ENWYFQS | area with substrate ENYYFQS | area with substrate ENFYFQS | area with substrate ENHYFQS | area with substrate ENPYFQS | area with substrate ENRYFQS
1 | MGESLFKGPRDYNPISSSICHLTNESDGHTTSLYGIGFGPFIITNKHLFRRNNGTLVVQSLHGVFKVKDTTTLQQHLVDGRDMIIIRMPKDFPPFPQKLKFREPQREERICLVTTNFQTKSMSSMVSDTSCTFPSGDGIFWKHWIQTKDGQCGSPLVSTRDGFIVGIHSASNFTNTNNYFTSVPKNFEELLTNQEAQQWVSGWRLNADSVLWGGHKVFMVKPEEPFQPVKEATQL [M188E] | 0.0605 | 0.0616 | 0.0591 | 0.0427 | 0.0657 | 0.127 | 0.08 | 0.0675 | – | – | – | – | – | – | – | – | – | – | –
2 | MGESLFKGPRDYNPISSSICHLTNESDGHTTSLYGIGFGPFIITNKHLFRRNNGTLVVQSLHGVFKVKDTTTLQQHLVDGRDMIIIRMPKDFPPFPQKLKFREPQREERICLVTTNFQTKSMSSMVSDTSCTFPSGDGIFWKHWIQTKDGQCGSPLVSTRDGFIVGIHSASNFTNTNNYFTSVPKNFWELLTNQEAQQWVSGWRLNADSVLWGGHKVFMVKPEEPFQPVKEATQL [M188W] | 0.0669 | 0.0615 | 0.0862 | – | 0.0713 | 0.123 | 0.0657 | 0.0611 | 0.054 | 0.0794 | 0.0594 | 0.0454 | 0.0856 | 0.0488 | 0.0826 | – | – | – | –
3 | MGESLFKGPRDYNPISSSICHLTNESDGHTTSLYGIGFGPFIITNKHLFRRNNGTLVVQSLHGVFKVKDTTTLQQHLVDGRDMIIIRMPKDFPPFPQKLKFREPQREERICLVTTNFQTKSMSSMVSDTSCTFPSGDGIFWKHWIQTKDGQCGSPLVSTRDGFIVGIHSASNFTNTNNYFTSVPKNFMALLTNQEAQQWVSGWRLNADSVLWGGHKVFMVKPEEPFQPVKEATQL [E189A] | 0.044 | 0.0619 | – | 0.0671 | – | – | 0.0703 | – | – | 0.0862 | – | – | – | 0.0074 | – | 0.0412 | 0.0882 | 0.0445 | –
4 | MGESLFKGPRDYNPISSSICHLTNESDGHTTSLYGIGFGPFIITNKHLFRRNNGTLVVQSLHGVFKVKDTTTLQQHLVDGRDMIIIRMPKDFPPFPQKLKFREPQREERICLVTTNFQTKSMSSMVSDTSCTFPSGDGIFWKHWIQTKDGQCGSPLVSTRDGFIVGIHSASNFTNTNNYFTSVPKNFMMLLTNQEAQQWVSGWRLNADSVLWGGHKVFMVKPEEPFQPVKEATQL [E189M] | 0.0535 | 0.0674 | 0.0598 | 0.0559 | 0.0876 | 0.104 | 0.0577 | 0.0394 | 0.057 | 0.0623 | 0.0601 | 0.0774 | 0.0781 | – | 0.0554 | 0.0652 | 0.0726 | 0.0795 | 0.0595
5 | MGESLFKGPRDYNPISSSICHLTNESDGHTTSLYGIGFGPFIITNKHLFRRNNGTLVVQSLHGVFKVKDTTTLQQHLVDGRDMIIIRMPKDFPPFPQKLKFREPQREERICLVTTNFQTKSMSSMVSDTSCTFPSGDGIFWKHWIQTKDGQCGSPLVSTRDGFIVGIHSASNFTNTNNYFTSVPKNFMEHLTNQEAQQWVSGWRLNADSVLWGGHKVFMVKPEEPFQPVKEATQL [L190H] | 0.0532 | – | 0.0694 | 0.0568 | 0.0663 | 0.11 | 0.0613 | – | 0.0617 | 0.0833 | – | 0.0475 | 0.0692 | – | 0.0274 | 0.057 | 0.0581 | 0.0638 | 0.0491
6 | MGESLFKGPRDYNPISSSICHLTNESDGHTTSLYGIGFGPFIITNKHLFRRNNGTLVVQSLHGVFKVKDTTTLQQHLVDGRDMIIIRMPKDFPPFPQKLKFREPQREERICLVTTNFQTKSMSSMVSDTSCTFPSGDGIFWKHWIQTKDGQCGSPLVSTRDGFIVGIHSASNFTNTNNYFTSVPKNFMELDTNQEAQQWVSGWRLNADSVLWGGHKVFMVKPEEPFQPVKEATQL [L191D] | 0.0554 | 0.0585 | – | 0.0498 | – | 0.0289 | – | 0.0591 | 0.0629 | 0.0602 | – | 0.0628 | – | – | 0.0659 | 0.0565 | 0.0517 | – | –
7 | MGESLFKGPRDYNPISSSICHLTNESDGHTTSLYGIGFGPFIITNKHLFRRNNGTLVVQSLHGVFKVKDTTTLQQHLVDGRDMIIIRMPKDFPPFPQKLKFREPQREERICLVTTNFQTKSMSSMVSDTSCTFPSGDGIFWKHWIQTKDGQCGSPLVSTRDGFIVGIHSASNFTNTNNYFTSVPKNFMELGTNQEAQQWVSGWRLNADSVLWGGHKVFMVKPEEPFQPVKEATQL [L191G] | 0.0521 | 0.0467 | 0.0438 | – | 0.0637 | 0.069 | 0.0502 | – | 0.0598 | – | 0.0537 | 0.0476 | 0.0588 | 0.0461 | – | – | 0.0539 | 0.0667 | –
8 | MGESLFKGPRDYNPISSSICHLTNESDGHTTSLYGIGFGPFIITNKHLFRRNNGTLVVQSLHGVFKVKDTTTLQQHLVDGRDMIIIRMPKDFPPFPQKLKFREPQREERICLVTTNFQTKSMSSMVSDTSCTFPSGDGIFWKHWIQTKDGQCGSPLVSTRDGFIVGIHSASNFTNTNNYFTSVPKNFMELMTNQEAQQWVSGWRLNADSVLWGGHKVFMVKPEEPFQPVKEATQL [L191M] | 0.0526 | 0.0641 | 0.0928 | 0.0492 | 0.0589 | – | 0.057 | 0.0754 | 0.0741 | 0.0761 | 0.0612 | 0.0312 | 0.067 | 0.0437 | 0.0687 | 0.0521 | 0.0584 | 0.0657 | 0.0523
